Assay results from PubChem BioAssay AID504339 (National Center for Advancing Translational Sciences (NCATS), 2011).
About 17,000 (4.4%) of roughly 390,000 compounds were called active. Inconclusive results, whose numbers are uncertain, are shown with a selection of clear calls. Calls come from the whole dose curve; as a rule, active = well fitted inhibition curve with a large enough effect; inconclusive = small, poorly fitted or top-dose-only effect; inactive = no such curve, though single readings can be large or run the other way. Potencies beside an inconclusive call are fits to weak or partial responses and may not hold up.

These compounds were tested against Lysine-specific demethylase 4A (Homo sapiens) (UniProt O75164) (assay: qHTS Assay for Inhibitors of JMJD2A-Tudor Domain). Details: AlphaScreen JMJD2A-Tudor / H3K4me3 peptide binding; activity change, negative = inhibition: at 114 µM (top of the series).
% is set by controls: 0 for no effect and ±100 for the full control effect; potency is the fitted concentration of half-maximal effect; tags give direction and shape of the fitted curve.
Note: nearly all actives have a fitted effect of over 50% in size.

UniProt O75164, sequence (O75164 whole entry, looked up, the tested form may be a part): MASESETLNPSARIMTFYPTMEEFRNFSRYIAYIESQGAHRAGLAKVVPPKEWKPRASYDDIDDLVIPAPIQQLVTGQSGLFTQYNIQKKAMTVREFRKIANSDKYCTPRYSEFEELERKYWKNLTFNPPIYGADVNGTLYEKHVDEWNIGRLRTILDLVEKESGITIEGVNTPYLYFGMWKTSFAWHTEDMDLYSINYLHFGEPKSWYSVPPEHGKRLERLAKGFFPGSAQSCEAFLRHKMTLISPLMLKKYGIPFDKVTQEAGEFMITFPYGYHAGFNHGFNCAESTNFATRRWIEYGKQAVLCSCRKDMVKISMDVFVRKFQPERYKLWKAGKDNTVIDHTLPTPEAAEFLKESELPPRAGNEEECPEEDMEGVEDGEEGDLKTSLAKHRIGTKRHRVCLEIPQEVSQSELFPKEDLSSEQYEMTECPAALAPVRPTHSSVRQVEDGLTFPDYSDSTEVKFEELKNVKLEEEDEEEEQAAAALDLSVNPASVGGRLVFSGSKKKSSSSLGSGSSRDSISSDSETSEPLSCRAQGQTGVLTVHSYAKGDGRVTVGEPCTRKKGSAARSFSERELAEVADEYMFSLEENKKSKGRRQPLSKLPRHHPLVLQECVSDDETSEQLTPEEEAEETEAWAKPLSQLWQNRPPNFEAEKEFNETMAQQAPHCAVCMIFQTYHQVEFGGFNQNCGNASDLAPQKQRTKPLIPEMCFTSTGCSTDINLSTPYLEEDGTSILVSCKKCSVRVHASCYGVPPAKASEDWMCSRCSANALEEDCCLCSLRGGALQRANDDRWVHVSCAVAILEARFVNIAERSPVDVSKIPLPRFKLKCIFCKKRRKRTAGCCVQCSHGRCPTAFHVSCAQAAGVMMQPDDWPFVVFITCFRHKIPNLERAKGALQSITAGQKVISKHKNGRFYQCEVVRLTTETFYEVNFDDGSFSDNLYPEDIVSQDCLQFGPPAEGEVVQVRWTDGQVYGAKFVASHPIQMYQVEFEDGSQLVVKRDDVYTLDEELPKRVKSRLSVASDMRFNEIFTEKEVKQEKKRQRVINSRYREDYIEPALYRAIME

Structure (SMILES)	Potency	activity change, negative = inhibition
Cc1[nH]c2ccc(OCc3ccccc3)cc2c1CCN	inconclusive: 50.1 µM [inhibitor, partial curve]	–
C(=NN1CCCCCC1)c1c[nH]c2ccccc12	inconclusive: 56.2 µM [inhibitor, partial curve]	–
CC(C)OP(=O)(OC(C)C)C(Nc1ccc([N+](=O)[O-])cc1)c1cccc([N+](=O)[O-])c1 (configuration not stated)	inconclusive: 20 µM [inhibitor, full curve]	–
CCOC(=O)c1c(/N=C/c2c(O)n(-c3ccccc3F)c(=S)[nH]c2=O)sc2c1CCCC2	inconclusive: 79.4 µM [inhibitor, single point]	–
Cc1cc(=O)oc2cc(Oc3ccc([N+](=O)[O-])cc3C(F)(F)F)ccc12	inconclusive: 44.7 µM [inhibitor, partial curve]	–
CCCC[N+]12CCC(CC1)C(C(O)(c1ccccc1)c1ccccc1)C2 (configuration not stated)	inconclusive: 25.1 µM [inhibitor, partial curve]	–
C/C(=N\N1CCCCC1c1cccnc1)c1c(O)n(C2CCCCC2)c(=S)[nH]c1=O (configuration not stated)	inconclusive: 22.4 µM [inhibitor, full curve, poor fit]	–
N=C1c2ccccc2CN1NC(=O)c1ccco1	–	inactive: -4.79%
COc1ccc2[nH]cc(CCN=C(NC(=O)c3ccccc3OC)Nc3nc(C)cc(C)n3)c2c1	inconclusive: 22.4 µM [inhibitor, full curve]	–
CCN1C(=O)/C(=C2\C=Cc3ccccc3N2CC)OC1=S	inconclusive: 10 µM [inhibitor, partial curve]	–
COc1ccc(N=C(C)c2c(O)[nH]c(=O)[nH]c2=O)cc1	–	inactive: -3.23%
Clc1ccccc1C1NCc2ccccc2-n2cccc21 (configuration not stated)	inconclusive: 56.2 µM [inhibitor, partial curve]	–
COc1cc(O)c(C(=O)O)c(-c2cc(O)c(O)cc2C)c1	active: 12.6 µM	–
CN1CCC(N(C)c2nc(-c3ccc([N+](=O)[O-])cc3)nc3ccccc23)CC1	inconclusive: 56.2 µM [inhibitor, partial curve]	–
Oc1ccc(Cl)cc1Sc1cc(Cl)ccc1O	inconclusive: 17.8 µM [inhibitor, full curve]	–
Cc1ccc(OP2(=O)Nc3cc(C)c(C)cc3S2)cc1 (configuration not stated)	active: 1.26 µM	–
CN1c2ccc([N+](=O)[O-])cc2CC2(C(=O)NC(=O)N(c3ccc(Br)cc3)C2=O)C1c1ccccc1 (configuration not stated)	inconclusive: 56.2 µM [inhibitor, partial curve]	–
CN(N)N=Nc1nc2c([nH]1)c(=O)n(C)c(=O)n2C	active: 79.4 µM	–
O=C(c1ccc2c3c(cccc13)CC2)C1CCCN(Cc2ncc[nH]2)C1 (configuration not stated)	inconclusive: 50.1 µM [inhibitor, partial curve]	–

Structure (SMILES)	Potency	activity change, negative = inhibition
Cc1ccc(N2CCN(C(=O)c3cn(CC4CCCCC4)nn3)C(C)C2)cc1 (configuration not stated)	inconclusive: 31.6 µM [inhibitor, full curve, poor fit]	–
O=S(=O)(c1ccccc1)N1CCCCC1c1cccnc1 (configuration not stated)	–	inactive: -9.95%
N=C1c2ccccc2CN1CC(=O)c1ccccc1	–	inactive: -5.56%
Cc1cc(=O)oc2c1c(C)nn2-c1nn[nH]n1	active: 14.1 µM	–
Cc1ccc(S(=O)(=O)N2Cc3ccccc3-n3nncc3C2)cc1	–	inactive: -32.6%
CC1=CC(=C2C(=O)NC(=S)NC2=O)C=C(C(F)(F)F)N1C	inconclusive: 79.4 µM [inhibitor, single point]	–
O=[N+]([O-])c1oc2ccc3ccccc3c2c1CCO	inconclusive: 56.2 µM [inhibitor, partial curve]	–
O=C(OC1CC2CCC(N2)C1C(=O)O)c1ccccc1 (configuration not stated)	active: 89.1 µM	–
COc1cc(C(=O)NC(=S)N2C[C@H]3C[C@H](C2)c2cccc(=O)n2C3)cc(OC)c1OC	–	inactive: -8.84%
O=C1CN(C(=O)COC(=O)Cc2ccccc2)c2ccccc2N1	–	inactive: -12.4%
COc1ccc(C(=O)C(C)(C)NO)cc1	active: 50.1 µM	–
COc1ccc(-n2ccnc(NCCc3ccc(Cl)cc3)c2=O)cc1OC	inconclusive: 50.1 µM [inhibitor, partial curve]	–
O=c1[nH]c(=S)[nH]c(O)c1/C=C1\C=Nc2ccccc21	inconclusive: 20 µM [inhibitor, full curve, poor fit]	–
C=C(C)[C@@]12OC3(c4ccccc4)O[C@@H]1C1[C@@H]4O[C@]4(CO)[C@@H](O)[C@]4(O)C(=O)C(C)=C[C@H]4[C@@]1(O3)[C@H](C)[C@H]2OC(=O)/C=C/C=C/c1ccccc1 (some centres not stated)	inconclusive: 56.2 µM [inhibitor, partial curve]	–
CCC12CN3CCN(CC(C3)/C1=N\O)C2	–	inactive: -21.2% [at 11.4 µM]
NC(=O)c1ccc(N=Cc2c(O)n(Cc3ccco3)c(=O)[nH]c2=O)cc1	inconclusive: 31.6 µM [inhibitor, partial curve, poor fit]	–
CC1[C@H]2Cc3ccc(O)cc3[C@]1(C)CCN2CCc1ccccc1 (some centres not stated)	–	inactive: -16.6%
Cn1c(O)c(C(c2ccccn2)c2c(O)n(C)c(=S)[nH]c2=O)c(=O)[nH]c1=S	active: 79.4 µM	–
